The chains are these.
T1: RBFOX1 RRM (Homo sapiens, UniProt Q9NWB1 109-208)
T1 sequence: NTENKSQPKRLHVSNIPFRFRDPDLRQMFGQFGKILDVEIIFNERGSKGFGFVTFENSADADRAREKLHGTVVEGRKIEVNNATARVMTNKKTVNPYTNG

B1: UUGAGUU (DNA:RNA)
RNA: GGGAGACCGGAAUUCAGAUUGUCCUUGAGUUUUAAAUCCCGUCGUAGCCACCA
DNA 1: CAATCTGAATTCCGGTCTCCC
DNA 2: TGGTGGCTACGACGGGATT
B2: CGCUGAC (DNA:RNA)
RNA: B1 RNA with U25C, U26G, G27C, A28U, U30A, U31C
DNA 1: CAATCTGAATTCCGGTCTCCC
DNA 2: TGGTGGCTACGACGGGATT
B3: CAGCCGG (DNA:RNA)
RNA: B1 RNA with U25C, U26A, A28C, G29C, U30G, U31G
DNA 1: CAATCTGAATTCCGGTCTCCC
DNA 2: TGGTGGCTACGACGGGATT
B4: AUAUGGU (DNA:RNA)
RNA: B1 RNA with U25A, G27A, A28U, U30G
DNA 1: CAATCTGAATTCCGGTCTCCC
DNA 2: TGGTGGCTACGACGGGATT
B5: UAUGUAC (DNA:RNA)
RNA: B1 RNA with U26A, G27U, A28G, G29U, U30A, U31C
DNA 1: CAATCTGAATTCCGGTCTCCC
DNA 2: TGGTGGCTACGACGGGATT
B6: AGUCUGG (DNA:RNA)
RNA: GGGAGACCGGAAUUCAGAUUGUCCAGUCUGGUUAAAUCCCGUCGUAGCCACCA
DNA 1: CAATCTGAATTCCGGTCTCCC
DNA 2: TGGTGGCTACGACGGGATT
B7: CGGUAUC (DNA:RNA)
RNA: B1 RNA with U25C, U26G, A28U, G29A, U31C
DNA 1: CAATCTGAATTCCGGTCTCCC
DNA 2: TGGTGGCTACGACGGGATT
B8: GAAGGGU (DNA:RNA)
RNA: B1 RNA with U25G, U26A, G27A, A28G, U30G
DNA 1: CAATCTGAATTCCGGTCTCCC
DNA 2: TGGTGGCTACGACGGGATT
B9: CCGCUUA (DNA:RNA)
RNA: B6 RNA with A25C, G26C, U27G, G30U, G31A
DNA 1: CAATCTGAATTCCGGTCTCCC
DNA 2: TGGTGGCTACGACGGGATT
B10: UGACCUA (DNA:RNA)
RNA: B6 RNA with A25U, U27A, U29C, G30U, G31A
DNA 1: CAATCTGAATTCCGGTCTCCC
DNA 2: TGGTGGCTACGACGGGATT
B11: GCUCUAG (DNA:RNA)
RNA: B6 RNA with A25G, G26C, G30A
DNA 1: CAATCTGAATTCCGGTCTCCC
DNA 2: TGGTGGCTACGACGGGATT
B12: AACAGCU (DNA:RNA)
RNA: B1 RNA with U25A, U26A, G27C, U30C
DNA 1: CAATCTGAATTCCGGTCTCCC
DNA 2: TGGTGGCTACGACGGGATT
B13: UCUGAUC (DNA:RNA)
RNA: B1 RNA with U26C, G27U, A28G, G29A, U31C
DNA 1: CAATCTGAATTCCGGTCTCCC
DNA 2: TGGTGGCTACGACGGGATT
B14: AUGGAUU (DNA:RNA)
RNA: B1 RNA with U25A, A28G, G29A
DNA 1: CAATCTGAATTCCGGTCTCCC
DNA 2: TGGTGGCTACGACGGGATT
B15: AAGACUG (DNA:RNA)
RNA: B1 RNA with U25A, U26A, G29C, U31G
DNA 1: CAATCTGAATTCCGGTCTCCC
DNA 2: TGGTGGCTACGACGGGATT
B16: GGGUGAC (DNA:RNA)
RNA: B1 RNA with U25G, U26G, A28U, U30A, U31C
DNA 1: CAATCTGAATTCCGGTCTCCC
DNA 2: TGGTGGCTACGACGGGATT
B17: UGCCGAA (DNA:RNA)
RNA: B6 RNA with A25U, U27C, U29G, G30A, G31A
DNA 1: CAATCTGAATTCCGGTCTCCC
DNA 2: TGGTGGCTACGACGGGATT
B18: UAUUAAG (DNA:RNA)
RNA: B6 RNA with A25U, G26A, C28U, U29A, G30A
DNA 1: CAATCTGAATTCCGGTCTCCC
DNA 2: TGGTGGCTACGACGGGATT
B19: AGCCAUA (DNA:RNA)
RNA: B6 RNA with U27C, U29A, G30U, G31A
DNA 1: CAATCTGAATTCCGGTCTCCC
DNA 2: TGGTGGCTACGACGGGATT
B20: AUCAUAA (DNA:RNA)
RNA: B6 RNA with G26U, U27C, C28A, G30A, G31A
DNA 1: CAATCTGAATTCCGGTCTCCC
DNA 2: TGGTGGCTACGACGGGATT

Where a chain is given by its changes, count along the chain named. The list shows a part of the results.

The test has as its target T1, RBFOX1 RRM. Briefly: EMSA; HiTS-Eq, 1 nM pool, 10 min; buffer printed only for the single-RNA assays: 10 mM Tris pH 7.5, 150 mM NaCl, 3.4 mM EDTA, 0.001% NP-40, 30 C. Particulars: tags: His6 N-terminal (pET28a); label: 5' 32P. The method, boiled down: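 A pool of RNA with 7 randomized nucleotides, 5′-radiolabelled and with DNA-annealed flanks, was equilibrated at 1 nM for 10 min in 50 µL with purified RbFox RRM, wild type or mutant, across increasing protein concentrations. Free RNA was separated by 8% native PAGE, excised, reverse-transcribed, barcoded by PCR and sequenced. Relative association constants were obtained from read-count changes of each RNA species versus the control reaction and normalised to the cognate motif.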
For the molecule B1, the binding signal is 0.0158 KA relative to UGCAUGU. The value for B2 was 0.016 KA relative to UGCAUGU; that for B3 was 0.00724 KA relative to UGCAUGU.

For the molecule B4, the binding signal was 0.00889 KA relative to UGCAUGU. On to B5, for which the binding signal was 0.00949 KA relative to UGCAUGU. With B6, the binding signal was 0.0172 KA relative to UGCAUGU. Consider B7, for which the binding signal is 0.00533 KA relative to UGCAUGU. The value for B8 was 0.0119 KA relative to UGCAUGU; that for B9 was 0.00338 KA relative to UGCAUGU; that for B10 was 0.00667 KA relative to UGCAUGU.

B11: the binding signal is 0.012 KA relative to UGCAUGU.

Regarding B12, the binding signal was 0.00273 KA relative to UGCAUGU. The value for B13 was 0.0179 KA relative to UGCAUGU; that for B14 was 0.0175 KA relative to UGCAUGU; that for B15 was 0.0112 KA relative to UGCAUGU. Next, B16: 0.0143 KA relative to UGCAUGU. The value for B17 was 0.018 KA relative to UGCAUGU. B18: the binding signal is 0.0136 KA relative to UGCAUGU.

Turning to B19, the binding signal is 0.00205 KA relative to UGCAUGU. With B20, the binding signal is 0.0013 KA relative to UGCAUGU.

The values above are taken from PMC9911399, “Two distinct binding modes provide the RNA-binding protein RbFox with extraordinary sequence specificity”.
